Test results from PMC3085482, “Phosphorylation-Dependent Differential Regulation of Plant Growth, Cell Death, and Innate Immunity by the Regulatory Receptor-Like Kinase BAK1” (PLoS Genetics, 2011).
No constants are given. Whether binding was seen depends on the method and setting. In cells and extracts the contact can be indirect. Some results given as binding are weak or reduced against the parent protein; the word gives no strength. For part of these data: Where a sequence is shown, tags or fusion partners need not be part of it.

By UniProt entry, the sequences of proteins in these tests, tags left out. Where a name states a change or a piece, a line headed by the entry shows the natural chain unless it says otherwise. Chains listed by the source or under a name are the forms on record and can include a tag or linker. Residues count along the entry.
UniProt O22476, residues 24-1196: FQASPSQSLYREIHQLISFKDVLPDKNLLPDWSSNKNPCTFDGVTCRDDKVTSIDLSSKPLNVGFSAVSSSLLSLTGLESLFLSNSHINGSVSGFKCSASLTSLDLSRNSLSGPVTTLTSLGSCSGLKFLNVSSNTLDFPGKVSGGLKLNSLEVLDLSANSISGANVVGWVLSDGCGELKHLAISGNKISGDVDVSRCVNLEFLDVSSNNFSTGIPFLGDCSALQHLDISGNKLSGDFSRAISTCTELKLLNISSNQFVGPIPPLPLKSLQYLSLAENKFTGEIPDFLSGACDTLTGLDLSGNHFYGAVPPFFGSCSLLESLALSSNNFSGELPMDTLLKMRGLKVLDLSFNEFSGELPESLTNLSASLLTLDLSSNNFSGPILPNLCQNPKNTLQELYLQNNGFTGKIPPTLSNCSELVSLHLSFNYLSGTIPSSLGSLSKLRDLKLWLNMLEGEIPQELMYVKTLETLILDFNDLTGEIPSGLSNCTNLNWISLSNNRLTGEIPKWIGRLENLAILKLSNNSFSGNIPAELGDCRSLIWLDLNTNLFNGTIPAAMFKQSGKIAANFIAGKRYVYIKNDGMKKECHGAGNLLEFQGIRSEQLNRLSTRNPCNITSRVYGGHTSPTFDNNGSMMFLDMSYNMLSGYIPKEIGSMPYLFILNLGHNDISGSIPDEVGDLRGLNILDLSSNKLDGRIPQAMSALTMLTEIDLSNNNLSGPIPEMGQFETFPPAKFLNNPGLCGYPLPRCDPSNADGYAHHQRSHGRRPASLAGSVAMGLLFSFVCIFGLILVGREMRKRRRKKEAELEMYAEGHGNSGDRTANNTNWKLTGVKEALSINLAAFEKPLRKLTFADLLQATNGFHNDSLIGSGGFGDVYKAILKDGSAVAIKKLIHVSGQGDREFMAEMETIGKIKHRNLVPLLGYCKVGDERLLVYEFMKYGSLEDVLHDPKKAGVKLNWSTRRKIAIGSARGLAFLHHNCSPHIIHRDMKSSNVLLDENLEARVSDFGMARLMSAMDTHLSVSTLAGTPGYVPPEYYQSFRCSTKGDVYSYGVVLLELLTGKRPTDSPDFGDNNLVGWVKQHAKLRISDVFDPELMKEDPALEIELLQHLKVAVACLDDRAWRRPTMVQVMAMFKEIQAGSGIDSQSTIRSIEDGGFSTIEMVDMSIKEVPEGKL
EFR-GFP-His (C0LGT6, residues 25-1031): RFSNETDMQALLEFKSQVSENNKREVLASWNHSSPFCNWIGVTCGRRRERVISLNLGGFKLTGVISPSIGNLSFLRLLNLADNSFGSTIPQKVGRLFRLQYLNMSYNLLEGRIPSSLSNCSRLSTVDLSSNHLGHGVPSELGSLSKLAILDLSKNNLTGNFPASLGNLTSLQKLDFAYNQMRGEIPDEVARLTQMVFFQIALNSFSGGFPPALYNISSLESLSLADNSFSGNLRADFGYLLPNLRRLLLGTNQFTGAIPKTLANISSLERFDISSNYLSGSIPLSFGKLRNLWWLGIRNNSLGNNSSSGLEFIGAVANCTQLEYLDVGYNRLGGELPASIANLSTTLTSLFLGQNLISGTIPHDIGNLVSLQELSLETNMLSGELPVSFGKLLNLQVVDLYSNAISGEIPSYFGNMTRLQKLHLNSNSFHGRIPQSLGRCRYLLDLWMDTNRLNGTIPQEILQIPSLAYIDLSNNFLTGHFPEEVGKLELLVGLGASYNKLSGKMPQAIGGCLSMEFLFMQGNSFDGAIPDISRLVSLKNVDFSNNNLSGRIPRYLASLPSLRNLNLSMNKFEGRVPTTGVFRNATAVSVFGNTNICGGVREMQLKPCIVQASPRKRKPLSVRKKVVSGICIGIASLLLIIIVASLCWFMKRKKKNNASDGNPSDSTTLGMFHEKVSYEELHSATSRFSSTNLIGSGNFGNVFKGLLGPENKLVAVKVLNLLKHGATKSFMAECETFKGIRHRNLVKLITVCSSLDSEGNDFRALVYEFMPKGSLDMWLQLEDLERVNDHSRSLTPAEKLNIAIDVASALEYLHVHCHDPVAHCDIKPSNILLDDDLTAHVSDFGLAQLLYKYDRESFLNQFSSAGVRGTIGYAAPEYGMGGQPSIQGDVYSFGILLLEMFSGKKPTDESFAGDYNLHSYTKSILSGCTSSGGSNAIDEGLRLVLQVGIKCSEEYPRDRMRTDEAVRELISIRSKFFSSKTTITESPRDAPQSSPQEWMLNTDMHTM
EFR*-GFP-His (kinase-dead EFR, D849N) (C0LGT6, form named): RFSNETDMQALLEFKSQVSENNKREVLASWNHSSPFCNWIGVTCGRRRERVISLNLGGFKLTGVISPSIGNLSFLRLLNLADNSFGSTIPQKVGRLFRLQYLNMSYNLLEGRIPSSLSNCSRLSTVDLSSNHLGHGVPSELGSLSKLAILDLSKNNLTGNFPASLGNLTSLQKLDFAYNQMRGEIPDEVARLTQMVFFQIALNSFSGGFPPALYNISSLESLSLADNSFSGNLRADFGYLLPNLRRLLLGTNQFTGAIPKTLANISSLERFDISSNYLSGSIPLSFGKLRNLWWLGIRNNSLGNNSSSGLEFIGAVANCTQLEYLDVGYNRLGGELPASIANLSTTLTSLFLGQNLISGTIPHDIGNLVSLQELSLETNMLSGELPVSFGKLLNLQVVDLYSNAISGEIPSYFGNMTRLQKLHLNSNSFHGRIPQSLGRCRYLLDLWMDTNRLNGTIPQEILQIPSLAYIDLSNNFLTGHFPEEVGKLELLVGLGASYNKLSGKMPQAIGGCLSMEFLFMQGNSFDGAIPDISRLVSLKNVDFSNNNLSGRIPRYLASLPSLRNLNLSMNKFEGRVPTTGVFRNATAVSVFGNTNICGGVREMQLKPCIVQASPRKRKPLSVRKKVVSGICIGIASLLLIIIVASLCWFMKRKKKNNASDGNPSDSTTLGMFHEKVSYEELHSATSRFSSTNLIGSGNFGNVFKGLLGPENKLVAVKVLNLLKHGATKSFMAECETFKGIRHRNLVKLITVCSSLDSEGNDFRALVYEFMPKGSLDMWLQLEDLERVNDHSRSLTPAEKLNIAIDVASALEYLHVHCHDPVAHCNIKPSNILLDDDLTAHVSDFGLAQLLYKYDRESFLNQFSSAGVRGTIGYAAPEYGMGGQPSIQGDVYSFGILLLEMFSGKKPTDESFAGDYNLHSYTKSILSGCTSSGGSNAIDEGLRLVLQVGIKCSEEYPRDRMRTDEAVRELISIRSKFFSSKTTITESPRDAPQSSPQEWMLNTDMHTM

T1: BAK1-5-GFP (BAK1p::BAK1-5-eGFP) (Arabidopsis thaliana) (UniProt Q94F62)
T1 sequence: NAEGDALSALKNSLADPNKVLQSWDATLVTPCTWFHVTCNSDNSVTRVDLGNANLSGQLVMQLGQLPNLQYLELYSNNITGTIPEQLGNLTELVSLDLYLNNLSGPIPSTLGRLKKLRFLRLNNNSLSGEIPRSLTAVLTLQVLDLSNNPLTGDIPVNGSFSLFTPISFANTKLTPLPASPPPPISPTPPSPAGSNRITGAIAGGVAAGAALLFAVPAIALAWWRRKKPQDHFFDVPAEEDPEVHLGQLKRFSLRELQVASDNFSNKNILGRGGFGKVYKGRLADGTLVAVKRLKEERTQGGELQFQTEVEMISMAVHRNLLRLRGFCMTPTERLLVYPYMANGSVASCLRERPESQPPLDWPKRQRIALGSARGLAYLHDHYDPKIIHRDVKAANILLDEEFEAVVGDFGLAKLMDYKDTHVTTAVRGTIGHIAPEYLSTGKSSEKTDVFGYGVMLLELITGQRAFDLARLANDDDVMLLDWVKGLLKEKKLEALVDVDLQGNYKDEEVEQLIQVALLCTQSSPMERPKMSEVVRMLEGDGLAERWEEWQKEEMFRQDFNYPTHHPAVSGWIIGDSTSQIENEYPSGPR

T2: BAK1-GFP (BAK1p::BAK1-eGFP) (Arabidopsis thaliana) (UniProt Q94F62)
T2 sequence: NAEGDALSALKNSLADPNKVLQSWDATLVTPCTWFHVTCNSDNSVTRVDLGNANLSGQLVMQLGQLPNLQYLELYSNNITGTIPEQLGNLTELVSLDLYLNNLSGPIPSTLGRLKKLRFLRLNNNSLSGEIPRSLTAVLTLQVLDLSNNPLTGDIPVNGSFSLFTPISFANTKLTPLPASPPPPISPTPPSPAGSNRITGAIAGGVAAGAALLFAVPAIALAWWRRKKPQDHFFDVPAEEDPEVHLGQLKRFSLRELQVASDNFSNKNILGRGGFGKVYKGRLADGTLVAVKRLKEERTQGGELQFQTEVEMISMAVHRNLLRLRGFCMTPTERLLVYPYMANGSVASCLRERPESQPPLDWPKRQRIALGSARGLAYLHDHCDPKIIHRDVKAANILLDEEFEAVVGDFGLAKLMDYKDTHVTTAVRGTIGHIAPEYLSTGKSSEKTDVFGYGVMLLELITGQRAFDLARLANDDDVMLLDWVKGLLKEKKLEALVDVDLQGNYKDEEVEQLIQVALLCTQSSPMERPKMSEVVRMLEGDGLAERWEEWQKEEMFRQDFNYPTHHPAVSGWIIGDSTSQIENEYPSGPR


Assays:
[1] = molecular target: T1, BAK1-5-GFP (BAK1p::BAK1-5-eGFP) (Arabidopsis thaliana); assay: co-IP; N. benthamiana leaves transiently co-expressing EFR-HA3 with BAK1-GFP or BAK1-5-GFP, treated with 100 nM elf18 for 5 min; IP with GFP-Trap beads, blot with anti-GFP or anti-HA
[2] = molecular target: T2, BAK1-GFP (BAK1p::BAK1-eGFP) (Arabidopsis thaliana); assay: as above
[3] = molecular target: T2, BAK1-GFP (BAK1p::BAK1-eGFP) (Arabidopsis thaliana); assay: co-IP; as a5 but leaves not treated with elf18; IP with GFP-Trap beads, blot with anti-HA
[4] = molecular target: T1, BAK1-5-GFP (BAK1p::BAK1-5-eGFP) (Arabidopsis thaliana); assay: co-IP; N. benthamiana leaves transiently co-expressing CERK1-HA3 with BAK1-GFP or BAK1-5-GFP, treated or not with 100 mg/mL chitin for 5 min; IP with GFP-Trap beads, blot with anti-GFP or anti-HA
[5] = molecular target: T2, BAK1-GFP (BAK1p::BAK1-eGFP) (Arabidopsis thaliana); assay: as above
[6] = molecular target: BRI1 (brassinosteroid receptor, LRR-RK), endogenous (Arabidopsis thaliana (endogenous in Col-0 and bak1-5)) (UniProt O22476); assay: co-IP; A. thaliana Col-0 or bak1-5 treated or not with 100 nM BL for 1.5 h; IP with anti-BRI1 antibodies and IgG beads, blot with anti-BRI1 or anti-BAK1
[7] = molecular target: EFR*-GFP-His (kinase-dead EFR, D849N) (Arabidopsis thaliana) (UniProt C0LGT6); assay: co-IP; N. benthamiana leaves transiently co-expressing EFR-GFP-His, EFR*-GFP-His, FLS2-GFP-His or FLS2*-GFP-His with BAK1-HA3 or BAK1*-HA3, after elicitation with 100 nM elf18 or flg22; IP with anti-GFP (GFP-trap) beads, blot with anti-GFP or anti-HA
[8] = molecular target: EFR-GFP-His (Arabidopsis thaliana) (UniProt C0LGT6); assay: as above
[9] = molecular target: EFR-GFP-His (Arabidopsis thaliana) (UniProt C0LGT6); assay: co-IP; as a9 but before elicitation (no elf18 or flg22); IP with anti-GFP (GFP-trap) beads, blot with anti-HA

Row | Molecule | binding [6] | binding [7] | binding [8] | further results
1 | EFR-HA3 (EFRp::EFR-3xHA) (from UniProt C0LGT6 25-1031) (receptor) |  |  |  | binding [1]: binds; binding [2]: binds; binding [3]: no binding (condition: without elf18)
2 | CERK1-HA3 (CERK1p::CERK1-3xHA) (receptor, UniProt A8R7E6 24-617) KCRTSCPLALASYYLENGTTLSVINQNLNSSIAPYDQINFDPILRYNSNIKDKDRIQMGSRVLVPFPCECQPGDFLGHNFSYSVRQEDTYERVAISNYANLTTMESLQARNPFPATNIPLSATLNVLVNCSCGDESVSKDFGLFVTYPLRPEDSLSSIARSSGVSADILQRYNPGVNFNSGNGIVYVPGRDPNGAFPPFKSSKQDGVGAGVIAGIVIGVIVALLLILFIVYYAYRKNKSKGDSFSSSIPLSTKADHASSTSLQSGGLGGAGVSPGIAAISVDKSVEFSLEELAKATDNFNLSFKIGQGGFGAVYYAELRGEKAAIKKMDMEASKQFLAELKVLTRVHHVNLVRLIGYCVEGSLFLVYEYVENGNLGQHLHGSGREPLPWTKRVQIALDSARGLEYIHEHTVPVYVHRDIKSANILIDQKFRAKVADFGLTKLTEVGGSATRGAMGTFGYMAPETVYGEVSAKVDVYAFGVVLYELISAKGAVVKMTEAVGEFRGLVGVFEESFKETDKEEALRKIIDPRLGDSYPFDSVYKMAELGKACTQENAQLRPSMRYIVVALSTLFSSTGNWDVGNFQNEDLVSLMSGR |  |  |  | binding [4]: no binding; binding [5]: no binding
3 | BAK1-HA3 (receptor, UniProt Q94F62 26-615) NAEGDALSALKNSLADPNKVLQSWDATLVTPCTWFHVTCNSDNSVTRVDLGNANLSGQLVMQLGQLPNLQYLELYSNNITGTIPEQLGNLTELVSLDLYLNNLSGPIPSTLGRLKKLRFLRLNNNSLSGEIPRSLTAVLTLQVLDLSNNPLTGDIPVNGSFSLFTPISFANTKLTPLPASPPPPISPTPPSPAGSNRITGAIAGGVAAGAALLFAVPAIALAWWRRKKPQDHFFDVPAEEDPEVHLGQLKRFSLRELQVASDNFSNKNILGRGGFGKVYKGRLADGTLVAVKRLKEERTQGGELQFQTEVEMISMAVHRNLLRLRGFCMTPTERLLVYPYMANGSVASCLRERPESQPPLDWPKRQRIALGSARGLAYLHDHCDPKIIHRDVKAANILLDEEFEAVVGDFGLAKLMDYKDTHVTTAVRGTIGHIAPEYLSTGKSSEKTDVFGYGVMLLELITGQRAFDLARLANDDDVMLLDWVKGLLKEKKLEALVDVDLQGNYKDEEVEQLIQVALLCTQSSPMERPKMSEVVRMLEGDGLAERWEEWQKEEMFRQDFNYPTHHPAVSGWIIGDSTSQIENEYPSGPR |  | binds | binds | binding [9]: no binding (condition: without elf18)

Further lines, with some results ahead:

Row | binding [6] | binding [7] | binding [8] | Molecule | further results
4 | binds |  |  | BAK1-5 (BAK1 C408Y), endogenous protein of the bak1-5 mutant (receptor, UniProt Q94F62 26-615) NAEGDALSALKNSLADPNKVLQSWDATLVTPCTWFHVTCNSDNSVTRVDLGNANLSGQLVMQLGQLPNLQYLELYSNNITGTIPEQLGNLTELVSLDLYLNNLSGPIPSTLGRLKKLRFLRLNNNSLSGEIPRSLTAVLTLQVLDLSNNPLTGDIPVNGSFSLFTPISFANTKLTPLPASPPPPISPTPPSPAGSNRITGAIAGGVAAGAALLFAVPAIALAWWRRKKPQDHFFDVPAEEDPEVHLGQLKRFSLRELQVASDNFSNKNILGRGGFGKVYKGRLADGTLVAVKRLKEERTQGGELQFQTEVEMISMAVHRNLLRLRGFCMTPTERLLVYPYMANGSVASCLRERPESQPPLDWPKRQRIALGSARGLAYLHDHYDPKIIHRDVKAANILLDEEFEAVVGDFGLAKLMDYKDTHVTTAVRGTIGHIAPEYLSTGKSSEKTDVFGYGVMLLELITGQRAFDLARLANDDDVMLLDWVKGLLKEKKLEALVDVDLQGNYKDEEVEQLIQVALLCTQSSPMERPKMSEVVRMLEGDGLAERWEEWQKEEMFRQDFNYPTHHPAVSGWIIGDSTSQIENEYPSGPR | 
5 |  | binds | binds | BAK1*-HA3 (kinase-dead BAK1, D416N) (receptor, UniProt Q94F62 26-615) NAEGDALSALKNSLADPNKVLQSWDATLVTPCTWFHVTCNSDNSVTRVDLGNANLSGQLVMQLGQLPNLQYLELYSNNITGTIPEQLGNLTELVSLDLYLNNLSGPIPSTLGRLKKLRFLRLNNNSLSGEIPRSLTAVLTLQVLDLSNNPLTGDIPVNGSFSLFTPISFANTKLTPLPASPPPPISPTPPSPAGSNRITGAIAGGVAAGAALLFAVPAIALAWWRRKKPQDHFFDVPAEEDPEVHLGQLKRFSLRELQVASDNFSNKNILGRGGFGKVYKGRLADGTLVAVKRLKEERTQGGELQFQTEVEMISMAVHRNLLRLRGFCMTPTERLLVYPYMANGSVASCLRERPESQPPLDWPKRQRIALGSARGLAYLHDHCDPKIIHRNVKAANILLDEEFEAVVGDFGLAKLMDYKDTHVTTAVRGTIGHIAPEYLSTGKSSEKTDVFGYGVMLLELITGQRAFDLARLANDDDVMLLDWVKGLLKEKKLEALVDVDLQGNYKDEEVEQLIQVALLCTQSSPMERPKMSEVVRMLEGDGLAERWEEWQKEEMFRQDFNYPTHHPAVSGWIIGDSTSQIENEYPSGPR | 
6 | binds |  |  | BAK1 (BRI1-associated kinase 1, regulatory LRR-RLK), endogenous wild type (receptor, UniProt Q94F62 26-615) NAEGDALSALKNSLADPNKVLQSWDATLVTPCTWFHVTCNSDNSVTRVDLGNANLSGQLVMQLGQLPNLQYLELYSNNITGTIPEQLGNLTELVSLDLYLNNLSGPIPSTLGRLKKLRFLRLNNNSLSGEIPRSLTAVLTLQVLDLSNNPLTGDIPVNGSFSLFTPISFANTKLTPLPASPPPPISPTPPSPAGSNRITGAIAGGVAAGAALLFAVPAIALAWWRRKKPQDHFFDVPAEEDPEVHLGQLKRFSLRELQVASDNFSNKNILGRGGFGKVYKGRLADGTLVAVKRLKEERTQGGELQFQTEVEMISMAVHRNLLRLRGFCMTPTERLLVYPYMANGSVASCLRERPESQPPLDWPKRQRIALGSARGLAYLHDHCDPKIIHRDVKAANILLDEEFEAVVGDFGLAKLMDYKDTHVTTAVRGTIGHIAPEYLSTGKSSEKTDVFGYGVMLLELITGQRAFDLARLANDDDVMLLDWVKGLLKEKKLEALVDVDLQGNYKDEEVEQLIQVALLCTQSSPMERPKMSEVVRMLEGDGLAERWEEWQKEEMFRQDFNYPTHHPAVSGWIIGDSTSQIENEYPSGPR | 
